Some of the results follow.
How the values were obtained:
[1] = tested on: HSkMC (human skeletal muscle cells); experiment: cytotoxicity call (relative viability < 0.9); settings: 10 µM
[2] = tested on: HepG2; experiment: cytotoxicity call (relative viability < 0.9); settings: 10 µM
[3] = tested on: S. aureus RN4220; experiment: growth inhibition call (relative growth <= 0.2); settings: 50 µM

CN1CCN(C(=O)C[C@H]2C=C[C@H](NC(=O)Nc3ccccc3F)[C@@H](CO)O2)CC1
inactive: cytotoxicity call [1] | cytotoxicity call [2] | growth inhibition call [3]

C[C@H](CO)N1C[C@H](C)[C@H](CN(C)C(=O)Cc2ccncc2)Oc2cc(C3=CCCC3)ccc2S1(=O)=O
inactive: cytotoxicity call [1] | cytotoxicity call [2] | growth inhibition call [3]

Cc1noc(C)c1NC(=O)N(C)C[C@H]1OCCCC[C@H](C)Oc2ccc(NC(=O)NC3CCCCC3)cc2C(=O)N([C@@H](C)CO)C[C@@H]1C
inactive: cytotoxicity call [1] | cytotoxicity call [2] | growth inhibition call [3]

Cc1ccc(S(=O)(=O)Nc2ccc3c(c2)CC(=O)N([C@H](C)CO)C[C@H](C)[C@H](CN(C)C(=O)Nc2cccc4ccccc24)O3)cc1
inactive: cytotoxicity call [1] | cytotoxicity call [2] | growth inhibition call [3]

CCCc1ccc2c(c1)CNCCC2
inactive: cytotoxicity call [1] | cytotoxicity call [2] | growth inhibition call [3]

C[C@@H]1CCCCO[C@@H](CN(C)C(=O)c2ccccc2)[C@@H](C)CN([C@H](C)CO)C(=O)c2cc(NS(=O)(=O)c3cccs3)ccc2O1
inactive: cytotoxicity call [1] | cytotoxicity call [2] | growth inhibition call [3]

C[C@@H]1CN([C@@H](C)CO)C(=O)c2cc(NC(=O)Nc3cccc4ccccc34)ccc2O[C@@H](C)CCCCO[C@@H]1CN(C)S(=O)(=O)c1cn(C)cn1
inactive: cytotoxicity call [1] | cytotoxicity call [2] | growth inhibition call [3]

COc1ccc(OC)c(S(=O)(=O)NCCO)c1
inactive: cytotoxicity call [1] | cytotoxicity call [2] | growth inhibition call [3]

COc1ccc(NC(=O)N(C)C[C@H]2Oc3c(NC(=O)C4CC4)cccc3C(=O)N([C@@H](C)CO)C[C@H]2C)cc1
inactive: cytotoxicity call [1] | cytotoxicity call [2] | growth inhibition call [3]

Cc1noc(C)c1S(=O)(=O)Nc1ccc2c(c1)C(=O)N([C@@H](C)CO)C[C@@H](C)[C@H](CN(C)C(=O)Nc1ccccc1)O2
inactive: cytotoxicity call [1] | cytotoxicity call [2] | growth inhibition call [3]

Source: the antibiotic and cytotoxicity screens of Wong et al. (2023)
